PMC4336329 (PLoS ONE, 2015)
Hit rate of the full screen: of about 310,000 compounds, about 2,200 (0.71%) showed an effect of 50% or more. The effect is printed as a negative number. The list shows a part of the results.

Target: human ether-à-go-go-related gene (hERG) potassium channel (human, UniProt Q12809)
Assay: primary screen, population patch clamp on CHO cells stably expressing hERG

Chain of human ether-à-go-go-related gene (hERG) potassium channel (Q12809 whole entry, looked up): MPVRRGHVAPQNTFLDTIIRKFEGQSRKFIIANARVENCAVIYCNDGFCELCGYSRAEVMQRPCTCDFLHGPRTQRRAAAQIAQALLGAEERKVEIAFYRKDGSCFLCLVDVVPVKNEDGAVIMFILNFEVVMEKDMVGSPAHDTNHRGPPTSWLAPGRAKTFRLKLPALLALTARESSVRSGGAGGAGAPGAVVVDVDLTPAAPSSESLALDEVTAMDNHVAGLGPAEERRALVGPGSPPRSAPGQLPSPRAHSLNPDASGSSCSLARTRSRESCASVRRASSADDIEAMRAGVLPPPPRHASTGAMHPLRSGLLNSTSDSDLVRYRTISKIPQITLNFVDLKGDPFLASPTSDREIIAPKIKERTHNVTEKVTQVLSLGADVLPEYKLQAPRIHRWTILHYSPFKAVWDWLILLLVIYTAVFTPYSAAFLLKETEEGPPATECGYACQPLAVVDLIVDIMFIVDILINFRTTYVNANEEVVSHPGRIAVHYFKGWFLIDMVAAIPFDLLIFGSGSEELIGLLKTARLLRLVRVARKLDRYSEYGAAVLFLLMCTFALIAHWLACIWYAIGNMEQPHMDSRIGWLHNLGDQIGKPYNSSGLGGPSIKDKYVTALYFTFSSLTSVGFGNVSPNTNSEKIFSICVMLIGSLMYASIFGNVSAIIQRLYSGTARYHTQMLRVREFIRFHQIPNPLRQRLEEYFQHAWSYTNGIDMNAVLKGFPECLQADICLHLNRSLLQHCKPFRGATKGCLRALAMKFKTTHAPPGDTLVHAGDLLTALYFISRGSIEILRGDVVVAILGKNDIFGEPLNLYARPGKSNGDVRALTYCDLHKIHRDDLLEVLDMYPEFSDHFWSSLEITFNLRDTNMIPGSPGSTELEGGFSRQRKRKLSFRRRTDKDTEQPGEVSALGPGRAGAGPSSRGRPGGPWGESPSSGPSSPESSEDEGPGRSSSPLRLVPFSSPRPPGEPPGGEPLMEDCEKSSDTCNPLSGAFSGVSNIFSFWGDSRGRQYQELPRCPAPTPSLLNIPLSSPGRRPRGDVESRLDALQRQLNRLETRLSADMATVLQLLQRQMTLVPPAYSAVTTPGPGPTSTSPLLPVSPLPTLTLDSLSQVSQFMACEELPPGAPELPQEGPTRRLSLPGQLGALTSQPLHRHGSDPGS

Row | SMILES | hERG current change (%, negative = inhibition) at 1uM [%]
1 | Cc1ccc(-c2ccc(C3C(C#N)=C(N)Oc4n[nH]c(C)c43)o2)cc1 (stereo not shown) | 14.9
2 | Cc1nc2ccc(NC(=O)N3CCOCC3)cc2s1 | 15.7
3 | O=C(OCC(=O)N1CCCCC1)c1ccccc1SCC(=O)N1CCCCC1 | 1.49
4 | Cn1c(=O)[nH]c(=O)c2c1nc(NCc1ccccc1)n2CCCc1ccccc1 | 6.85
5 | O=C(Cc1ccc([N+](=O)[O-])cc1)NC(C(=O)[O-])C(O)c1cccc([N+](=O)[O-])c1.[Na+] (stereo not shown) | 4.75
6 | O=C(NC(=S)Nc1cccnc1)c1cccc(Br)c1 | 15.7
7 | CCOc1ccc(C(=O)NCC(=O)OCc2c(F)cccc2Cl)cc1 | 6.64
8 | CCOc1ccc(C(=O)NCC(=O)NCC(c2ccco2)N2CCCCC2)cc1OCC (stereo not shown) | 11
9 | Cc1nn(-c2ccccc2)c(Cl)c1/C=N/NC(=O)c1ccccc1F | 13
10 | CSc1nsc(SC)c1NC(=O)OCC1CCCO1 (stereo not shown) | 16
11 | CCOC(=O)c1oc2ccc(Cl)cc2c1NC(C)=O | 11.1
12 | COc1ccc(CC(=O)OCC(=O)Nc2ccc3c(c2)OCO3)cc1 | 9.83
13 | CC(=O)OCC(=O)C1CCC2C3CC=C4CC(O)CCC4(C)C3CCC12C (stereo not shown) | 18
14 | COc1ccc(/C(N)=N/OC(=O)CC2CCCCC2)cc1 | 9.92
15 | COc1ccc(CCC(C)Nc2cccc(C)c2)cc1 (stereo not shown) | 0.16
16 | O=C(NCCc1ccccc1)c1ccc2c(c1)OCO2 | 19.3
17 | CCCCn1c(-c2ccc(Cl)c(Cl)c2)nc2cc3[nH]c(=O)c(C(C)C)nc3cc21 | 5.67
18 | NC(=S)NNC(=O)/C(=C/c1ccc(Br)cc1)NC(=O)c1ccccc1 | 26.7
19 | CCCNC(=O)c1ccc(N2CCC3(CC2)CC(c2cccc(Br)c2)=NO3)c([N+](=O)[O-])c1 | 2.54
20 | COCCN(C(=O)COC(=O)CCCOc1ccc(OC)cc1)c1c(N)n(Cc2ccccc2)c(=O)[nH]c1=O | 6.56

Row | SMILES | hERG current change (%, negative = inhibition) at 1uM [%]
21 | Cn1ncc(Br)c1NC(=O)Nc1ccc(Cl)cc1 | 11.8
22 | CC(=O)c1cc2c(cc1NS(=O)(=O)c1ccccc1Br)OCO2 | 13.3
23 | CC1Oc2ccccc2C=C1/C=N\NC(=O)c1cccnc1 (stereo not shown) | 5.91
24 | CCCCOC(=O)Oc1ccc2c(=O)c(Oc3cc(C)cc(C)c3)coc2c1 | 10.4
25 | O=C(Nc1ccc(Cl)cc1N1CCOCC1)C1CCCO1 (stereo not shown) | 18.7
26 | O=C(COC(=O)C1CCN(/C=C/C(=O)C(F)(F)F)CC1)Nc1cccc(F)c1 | -3.44
27 | Cc1cc(Cl)c2oc(C(=O)NCC(C)(C)N3CCOCC3)c(C)c2c1 | 5.01
28 | O=C(Nc1ccc(Cl)cc1)Nc1ccc(Oc2cccnc2)nc1 | 15.8
29 | CCNC(=S)N(CCc1c(C)[nH]c2ccc(Cl)cc12)Cc1ccco1 | 6.26
30 | COc1ccc(CN(C(=O)c2cc3ccccc3oc2=O)C2CCS(=O)(=O)C2)cc1OC (stereo not shown) | 7.67
31 | CC1(c2ccco2)NC(=O)NC1=O (stereo not shown) | 8.07
32 | N#CCCN(C(=O)c1ccc2c(=O)n3c(nc2c1)CCCCC3)c1ccccc1 | 12.6
33 | COc1cc(OC)c(S(=O)(=O)Nc2ccc(C(=O)N3CCCC3)cc2)cc1NC(C)=O | 9.62
34 | NC(=O)C1CCN(C(=O)CNC(=O)c2ccc(Br)o2)CC1 | -0.324
35 | CC1CCN(C(=O)CSc2nncn2C)CC1 | 5.63
36 | CCCNS(=O)(=O)c1cc(Cl)ccc1OC | 16.3
37 | O=C(O)/C(=C\c1cn(-c2ccccc2)nc1-c1ccc(Cl)cc1)NC(=O)c1ccccc1 | 5.29
38 | CCN(CC(=O)NCc1ccncc1)S(=O)(=O)c1ccc(OC)cc1 | 5.64
39 | CCCCN(C(=S)NC(=O)c1ccccc1)c1c(N)n(Cc2ccccc2)c(=O)[nH]c1=O | 8.06
40 | O=C(c1coc(=O)c(Br)c1)N1CCCc2ccccc21 | 9.4

Row | SMILES | hERG current change (%, negative = inhibition) at 1uM [%]
41 | Cc1cccc(/C=N/n2c(C)cc(C)c(C#N)c2=O)c1 | 11.9
42 | Cc1ccc(Nc2nnc(SCC(=O)c3ccc(Br)s3)s2)c(C)c1 | 11.5
43 | COc1ccc(N2CC(C(=O)N3CCN(C)CC3)CC2=O)cc1 (stereo not shown) | 15.6
44 | CCC(=O)NC(c1ccccc1)c1c(O)ccc2ccccc12 (stereo not shown) | 13.7
45 | COC(=O)c1sc(NC(=O)CSc2nnc(C(C)C)n2C)nc1C | 5.9
46 | N#Cc1nc(-c2ccc(OCc3ccccc3)cc2)oc1NCc1ccco1 | 11.5
47 | COc1ccc(NC(=O)/C=C/C(=O)O)cc1Cl | 12.7
48 | COc1cc(C(=O)OCC(=O)NCCC2=CCCCC2)ccc1OCC(C)C | 10.8
49 | CC(=O)Nc1ccc(C(=O)CS(=O)(=O)c2ccc(C)cc2)cc1 | -1.38
50 | Cc1cccc2nc(CSc3nc4ccccc4o3)cn12 | -2.75
51 | Cc1ccsc1CN(C)C(=O)c1ccc(Oc2ccccc2)cc1 | 6.61
52 | O=C(/C=C/c1cccc(Br)c1)OCC(=O)N1CCN(c2ccccc2)CC1 | 8.9
53 | Cc1ccc(Nc2nc3nonc3[nH]c2=O)cc1 | 14.7
54 | Cc1cc2ccccc2c(=O)n1CC(=O)Nc1ccc2c(c1)OCCO2 | 7.65
55 | Cc1ccc(OCC(O)CN2CCN(c3ccc(C)cc3)CC2)cc1 (stereo not shown) | -3.83
56 | COc1ccc(-c2cc(C(F)F)n3ncc(C(=O)Nc4ccc(C(=O)N5CCOCC5)cc4)c3n2)cc1 | 8.74
57 | Oc1ccc(N2CCN(c3nnnn3-c3ccccc3)CC2)cc1 | 3.34
58 | Cc1occc1C(=O)Nc1ccccc1C#N | 13.9
